Test results as given in PubChem BioAssay AID686970 (National Center for Advancing Translational Sciences (NCATS), 2013).
Among all 360,000 compounds or so, about 6,000 (1.7%) were called active. Inconclusive means that the source gave no clear call. Such entries were picked first, then a sample of the others. Calls follow the shape of the dose curve; as a rule, active = well fitted cell-killing curve with a large enough effect; inconclusive = small, poorly fitted or top-dose-only effect, or effect the other way; inactive = flat fitted curve, though single readings scatter. Potencies of inconclusive entries are left out as doubtful fits.

Experiment: qHTS for induction of synthetic lethality in tumor cells producing 2HG: qHTS for the HT-1080-NT fibrosarcoma cell line;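 also: NT is the 2HG producing partner of a matched IDH1 knockdown line; nearly all actives have a fitted effect of over 55% in size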;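 as to activity, negative = less viability: 0% = DMSO-treated cells and -100% = media-only wells without cells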
Settings: HT-1080-NT fibrosarcoma viability, CellTiter-Glo ATP luminescence, 48 h; activity, negative = less viability: at 46.1 µM (top of the series) unless noted
Method in brief: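 A 48-hour cytotoxicity screen used HT-1080-NT cells plated 2 hours before compound delivery. ATP-based CellTiter-Glo luminescence measured viability, normalized to DMSO and no-cell controls.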
Potency is read from the fitted curve at half-maximal effect; tags tell the direction and shape of the fitted curve.

Structure (SMILES)	activity, negative = less viability	Potency
N#Cc1cc([N+](=O)[O-])ccc1Oc1ccc(-c2nnco2)cc1	inconclusive: -33.3% [cytotoxic]	
COc1cc(Nc2ncc3c(n2)CCN(C(=O)Nc2ccc(C(C)C)cc2)C3)cc(OC)c1OC		active: 20.6 µM
CC1(C)CC(=O)C2=C(C1)OC(N)=C(C#N)C2C#Cc1ccccc1 (centres undefined)		inconclusive [cytotoxic, single point]
CCC(c1nnnn1C1CCCCC1)N(Cc1ccco1)Cc1cc2ccc(OC)cc2[nH]c1=O (centres undefined)		inconclusive [cytotoxic, single point]
CC(C)c1nc2scc(-c3ccc(Cl)cc3)c2c(=O)n1N		inactive
NC(=O)c1nsc(C(=O)N(Cc2cccnc2)C(C(=O)NCc2ccc(F)cc2)c2ccc(F)cc2)c1N (centres undefined)		inactive
Cc1cc(Nc2ccc(C(C)C)cc2)n2ncnc2n1		inactive
Cc1cc(NCc2ccc3c(c2)OCO3)n2nc(C)nc2n1		inactive
CC(NC(=O)c1ccc([N+](=O)[O-])o1)C1CC2CCC1C2 (centres undefined)		inconclusive [cytotoxic, single point]
CC(C)C[C@H]1CNC(=S)N1C[C@H]1CCCN1C[C@H](CC(C)C)N1C[C@H](Cc2ccc(O)cc2)N(CC2CCCCCC2)C1=S		inconclusive [cytotoxic, single point]
CN(C)c1ccc(/C=C(/NC(=O)c2ccccc2)C(=O)N/N=C/c2ccc([N+](=O)[O-])c(O)c2)cc1		inconclusive [cytotoxic, single point]
CC(=O)NC1=NC(=O)CS1		inconclusive [rising, partial curve, poor fit]
O=C(Cn1ccc(NC(=O)OCc2ccccc2)nc1=O)NCCCc1ccccc1		inconclusive [cytotoxic, single point]
Nc1nc(N)c(N=O)c(Nc2cccc(Cl)c2)n1		inconclusive [cytotoxic, single point]
CC(C)(C)C(=O)N1CCN(C(=O)c2ccco2)CC1		inactive
Cc1cc(=O)n2cccc(O)c2n1		inconclusive [cytotoxic, single point]
COc1ccc(CN(Cc2ccccc2)C(=O)c2ccc(O)cc2)cc1COc1ccc(NC(C)=O)cc1	inconclusive: -30.3% [cytotoxic]	
CC1=C(C(=O)N(C)C)CC(CC(=O)NC(c2ccccc2)c2ccccc2)C(=O)N1Cc1ccc(C(C)(C)C)cc1 (centres undefined)		inconclusive [cytotoxic, single point]
Cc1ccc(-c2nc(N/N=C/c3ccncc3)c3ccccc3n2)cc1		active: 11.2 µM
CN1/C(=C/C=C/c2n(C)c3cc([N+](=O)[O-])c([N+](=O)[O-])cc3[n+]2C)C(C)(C)c2ccccc21		inconclusive [cytotoxic, single point]
O=C(NCCCN1CCOCC1)C(=O)N/N=C/c1c2ccccc2cc2ccccc12		inconclusive [cytotoxic, single point]
S=c1[nH]cc(-c2ccccc2)[nH]1		inactive

Structure (SMILES)	activity, negative = less viability	Potency
O=C(NCC(c1ccco1)N1CCCCC1)c1ccc(COc2ccc(Cl)cc2)cc1 (centres undefined)		active: 18.4 µM
COC(=O)C1=C(N)Oc2cc(N(C)C)ccc2C1c1ccccc1OC (centres undefined)		inconclusive [cytotoxic, full curve]
N#Cc1ccsc1NC(=O)CN1CCN(c2ccc(O)cc2)CC1		inconclusive [cytotoxic, single point]
COc1ccc(C(=O)Oc2c(CN3CCOCC3)cc(Cl)c3cccnc23)cc1		active: 20.6 µM
O=C(O)CCCN1C(=O)/C(=C\C(Cl)=C\c2ccccc2)SC1=S		inconclusive [cytotoxic, single point]
CSc1nnc(NC(=O)c2nc(S(=O)(=O)Cc3ccccc3F)ncc2Cl)s1		inconclusive [cytotoxic, single point]
Cc1ccc(N(CC(=O)NCc2ccc(F)cc2)S(=O)(=O)c2c(C)nn(C)c2C)cc1		inactive
COc1ccc(S(=O)(=O)NCCSc2ccc(Cl)cc2)cc1OC		inconclusive [cytotoxic, single point]
CCc1nc2nc(C)c(NS(=O)(=O)c3cccs3)c(=O)n2[nH]1		inconclusive [rising, single point]
Cc1ccc(N2NC(C)(c3cccs3)NC2=S)cc1 (centres undefined)		inconclusive [cytotoxic, single point]
CC(=O)c1ccc(N2CCN(C(=O)CCCc3nc4ccccc4s3)CC2)cc1		inactive
Cn1c(CCCOc2ccc(Cl)cc2Cl)nnc1SCC(=O)Nc1ccc(F)c(Cl)c1		inconclusive [cytotoxic, partial curve]
N#C/C(C(=O)Nc1ccc(Cl)cc1)=C(/S)Nc1ccccc1		inconclusive [cytotoxic, partial curve]
CC1(C(=O)NCc2ccc(C(F)(F)F)cc2)CCN1Cc1ccc(-c2ccccc2)o1 (centres undefined)		inconclusive [cytotoxic, single point]
CC(Nc1nc(-c2ccncc2)nc2ccccc12)c1ccccc1 (centres undefined)		inactive
Cc1cccc(OCCCC(=O)Nc2ccc(Cl)c(S(=O)(=O)N3CCOCC3)c2)c1		inactive
CC1CCN(CCCOc2ccc(OCc3ccccc3)cc2)CC1		inconclusive [cytotoxic, single point]
CCOc1c(Cl)cc(CNc2ccc(S(N)(=O)=O)cc2)cc1OC		inactive
Cc1[nH]c2ccccc2c1C(=O)CN1CC(C)CC(C)C1 (centres undefined)		inconclusive [cytotoxic, single point]
COc1ccc(CCCc2nnc(SCC(=O)Nc3cc(C)ccc3C)o2)cc1		inactive
COc1cc(/C=C2\C(=O)NN(c3ccc(C)cc3)C2=O)cc([N+](=O)[O-])c1O		inconclusive [cytotoxic, partial curve]
C[C@H]1CN([C@@H](C)CO)C(=O)Cc2cc(NS(C)(=O)=O)ccc2O[C@@H]1CN(C)Cc1ccc(Cl)c(Cl)c1		inconclusive [cytotoxic, partial curve]
